# Results as given in the supplement of paper PMC4166925.
# ± gives the standard deviation of the averaged measurements. In all, about 33,000 sequences were measured (“E-score (dimensionless, -0.5 to 0.5)”: median about -0.046, highest 2% from about 0.36 on). Some of the results follow.
# System: T1, SpTbr T-box DNA-binding domain (GST fusion)
# T1 sequence: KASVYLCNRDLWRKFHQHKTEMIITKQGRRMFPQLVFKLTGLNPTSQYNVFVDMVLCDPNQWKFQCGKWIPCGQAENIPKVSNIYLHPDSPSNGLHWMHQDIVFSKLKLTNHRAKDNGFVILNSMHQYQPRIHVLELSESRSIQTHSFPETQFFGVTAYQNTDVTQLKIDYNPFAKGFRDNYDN
# Test: PBM E-score of 8-mer (E-score (dimensionless, -0.5 to 0.5)); Tbr is Tbrain of the sea star Patiria miniata (Pm) or the sea urchin Strongylocentrotus purpuratus (Sp); higher = stronger binding preference; most listed sequences are background and not binding sites
# Conditions: the construct has about 5 more residues each side
# Outline: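 Each ungapped 8-mer received an enrichment E-score from the Universal PBM Analysis Suite, averaged over duplicate arrays. The proteins were Tbr T-box DNA-binding domains, covering the whole T-box plus about five flanking residues, fused to GST and expressed in BL21 E. coli at 20 °C before glutathione affinity purification. Universal Agilent oligonucleotide arrays were made double-stranded by primer extension and incubated with 200 nM protein in PBS (pH 7.5). The arrays were then scanned and quantified, and every 8-mer was scored from probe intensities.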
row,Sequence,PBM E-score of 8-mer
1,CAAACTCA,-0.0448 ± 0.042
2,CCCACTCG,0.05 ± 0.13
3,ATTAGTTC,-0.146 ± 0.024
4,ACCTTTCC,-0.0357 ± 0.046
5,CGAGGGGC,-0.107 ± 0.03
6,ACCTTTTG,0.238 ± 0.033
7,CTCCAGTC,-0.1708 ± 0.00062
8,CGGAAACG,0.00523 ± 0.026
9,AGTGAGGG,0.0688 ± 0.0054
10,ACGGCATA,-0.1383 ± 0.00093
11,ATCCACTC,-0.118 ± 0.0075
12,TCGAGCCA,-0.161 ± 0.028
13,AACAGTTG,0.195 ± 0.029
14,ATTAGCGC,0.289 ± 0.017
15,ACCCGCCT,0.0371 ± 0.066
16,AAGGACTC,-0.099 ± 0.055
17,AAACGTAG,-0.0977 ± 0.12
18,GCAATTAA,-0.0315 ± 0.07
19,AAGGAGAG,-0.168 ± 0.0067
20,CAAACATA,-0.183 ± 0.067
21,ATGTTCGG,0.0147 ± 0.054
22,ACGTGATC,0.00617 ± 0.037

row,Sequence,PBM E-score of 8-mer
1,CTATACTA,-0.199 ± 0.015
2,AGACCAAA,-0.0338 ± 0.0097
3,ACCTAACT,0.0942 ± 0.077
4,GAATCCGA,-0.0574 ± 0.021
5,GATGTGGA,-0.0591 ± 0.0056
6,AGGTGAAC,0.164 ± 0.025
7,CTTCGTAC,-0.0104 ± 0.045
8,CCTCAACG,-0.109 ± 0.013
9,GACCCCCA,-0.028 ± 0.043
10,ATCATTCC,-0.162 ± 0.084
11,CTACAAAC,-0.0247 ± 0.076
12,AATCTCGC,0.292 ± 0.0066
13,AAGCACAA,-0.106 ± 0.019
14,CAGCATTA,-0.121 ± 0.096
15,CTAGCCAG,-0.134 ± 0.031
16,GGCTATAC,-0.149 ± 0.033
17,AACTTTTG,-0.0908 ± 0.036
18,AAAGCTAA,-0.142 ± 0.018
19,GGACCTGA,-0.266 ± 0.025
20,ATGCAGGG,-0.255 ± 0.0049
21,CGATCGCA,0.288 ± 0.06
22,AGGTCCGC,0.0985 ± 0.028

row,Sequence,PBM E-score of 8-mer
1,CGCTGGGC,-0.0665 ± 0.028
2,ACAAATAA,-0.0377 ± 0.058
3,CCACTCGC,0.151 ± 0.036
4,CAGTCGGG,-0.0614 ± 0.018
5,TACGCACA,0.0509 ± 0.00076
6,AGGATGCA,-0.33 ± 0.057
7,ATCCGTTA,-0.104 ± 0.011
8,AGTAATCA,0.0335 ± 0.1
9,CAAAGACA,-0.0594 ± 0.0018
10,ACGTCCTA,-0.17 ± 0.032
11,GAACGCAC,-0.0534 ± 0.022
12,TATTCGGA,-0.284 ± 0.034
13,GAACCGGA,-0.198 ± 0.015
14,CGACCGAC,0.0457 ± 0.038
15,TGGGCGAA,-0.169 ± 0.019
16,ACAAATTG,0.134 ± 0.12
17,ATATCCGG,-0.305 ± 0.072
18,CCTGGTTA,-0.147 ± 0.013
19,TCTCAGCA,0.0521 ± 0.036
20,GCTATCAC,0.263 ± 0.0067
21,GTACGCGA,0.0498 ± 0.053
22,TGGCCACA,0.174 ± 0.053

row,Sequence,PBM E-score of 8-mer
1,ACGCACTC,0.157 ± 0.038
2,AGTAGCAT,-0.206 ± 0.013
3,AAACTTGA,-0.0341 ± 0.015
4,AAGACTCA,0.0905 ± 0.085
5,AGTTGCAA,0.0833 ± 0.015
6,GCCCCCCA,-0.222 ± 0.013
7,ACTTTTCT,0.00466 ± 0.018
8,ATGCTGCA,-0.179 ± 0.0059
9,ACTGCCGA,-0.00382 ± 0.001
10,CACACAAC,0.332 ± 0.012
11,GCTACAGC,-0.211 ± 0.049
12,GATTGGCC,-0.133 ± 0.01
13,AAACAGTT,0.144 ± 0.018
14,CAATCACG,0.203 ± 0.017
15,TGTAAGAA,0.0721 ± 0.088
16,TAACTAGA,-0.184 ± 0.063
17,AATAATGG,-0.203 ± 0.034
18,CGGTTATC,0.146 ± 0.084
19,GGTAGATA,-0.212 ± 0.08
20,ATAAACAG,-0.0397 ± 0.036
